The chains are these.
B1: TPR 5TU (parent)
chain: GGAUCUUCUCGAUCUAACAAAAAAGACAAAUCUGCCACAAAGCUUGAGAGCAUCUUCGGAUGCAGAGGCGGCAGCCUUCGGUGGCGCGAUAGCGCCAACGUUCUCAACUAUGACACGCAAAACGCGUGCUCCGUUGAAUGGAGUUUAUCAUG

Variants at the background level are over-represented here. A value given as a limit tells only on which side of the number the result lay.

The variants in this data set derive from B1. Put plainly: polymerase ribozyme fitness, log enrichment relative to wild type (log ratio); higher = more active; in vitro selection for triplet polymerase activity. An outline of the steps: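 Libraries of mutants in each subunit of a heterodimeric triplet polymerase ribozyme were generated by PCR and transcribed. In triplicate, each went through one in vitro selection round: annealing with biotinylated primer, partner subunit and triplets; frozen incubation at −7 °C; gel excision of extended constructs; streptavidin-bead capture; RT-PCR. Fitness, taken from Illumina sequencing of input and output libraries, is the logarithm of a genotype's enrichment over wild-type enrichment, averaged across replicates with inverse-variance weights. The logarithm is base 2, and genotypes needed ≥10 input reads and ≥1 read per output to be kept.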
As for G25A C93U U104G A147C, the “polymerase ribozyme fitness (log ratio)” value was no more than -4.2.

Turning to A24U A49U C51U G70A C85U G112U C114A A122U U146C, the “polymerase ribozyme fitness (log ratio)” value was no more than -4.2.

Turning to A24U A49C C79A G83A U104G A142G, the “polymerase ribozyme fitness (log ratio)” value is no more than -4.2.

On to A24U C57A A89U C95U C118U G143U, for which the “polymerase ribozyme fitness (log ratio)” value is no more than -4.2.

In the case of A24C C99U, the “polymerase ribozyme fitness (log ratio)” value was no more than -4.2.

Take A24U C51G C76G G92A U145A C149G: the “polymerase ribozyme fitness (log ratio)” value was no more than -4.2.

In the case of A24G G25U C32G G46C U101C, the “polymerase ribozyme fitness (log ratio)” value is no more than -4.2.

As to A24C U53C A73U G80U G86U C103G C114U U130C C131G, the “polymerase ribozyme fitness (log ratio)” value is no more than -4.2.

As for A24G A28U C38A A52G U56A A64U, the “polymerase ribozyme fitness (log ratio)” value was no more than -4.2.

As to A24U A52U C118G A142U, the “polymerase ribozyme fitness (log ratio)” value is -3.54.

As to A24G G59C G67U C96U, the “polymerase ribozyme fitness (log ratio)” value is no more than -4.2.

Turning to G25A A26C G84A A106G C123A C132G, the “polymerase ribozyme fitness (log ratio)” value was no more than -4.2.

In the case of A24G A29U C54U G83A A98G, the “polymerase ribozyme fitness (log ratio)” value is no more than -4.2.

For the variant G25C A26C, the “polymerase ribozyme fitness (log ratio)” value was -2.94.

Regarding A24G C54U C95U A97C A119U C125U, the “polymerase ribozyme fitness (log ratio)” value was no more than -4.2.

Regarding A24U G59A C93G G94A U104G A106U C118U, the “polymerase ribozyme fitness (log ratio)” value is no more than -4.2.

For A24G U31G C79A G81A U101G A107G, the “polymerase ribozyme fitness (log ratio)” value was no more than -4.2.

For the variant G25A A30G C38U G48C C76G C93U, the “polymerase ribozyme fitness (log ratio)” value is no more than -4.2.

Consider A24G C116G, for which the “polymerase ribozyme fitness (log ratio)” value is -2.85.

Regarding A24U G25U C43U U77A G84A U101A C116G U145G, the “polymerase ribozyme fitness (log ratio)” value is no more than -4.2.

For A24U A39C A41C A64C G100C C125U G136U, the “polymerase ribozyme fitness (log ratio)” value was no more than -4.2.

For the variant A24C A41C U55G, the “polymerase ribozyme fitness (log ratio)” value is no more than -4.2.

Consider A24U C87U U109G U139A U148A U151G, for which the “polymerase ribozyme fitness (log ratio)” value is no more than -4.2.

As to A24U A39U C96A C99G U130C C131G, the “polymerase ribozyme fitness (log ratio)” value was no more than -4.2.

With A24U G50U U56G G58U C76U A122G, the “polymerase ribozyme fitness (log ratio)” value is -4.1.

With A24U G25U G88A G133C, the “polymerase ribozyme fitness (log ratio)” value is no more than -4.2.

In the case of A24U C38U A39C G81U C85U U135G, the “polymerase ribozyme fitness (log ratio)” value is no more than -4.2.

For the variant A24U C43U A49C U82G C85U U90C A97C U135G U139C G140U, the “polymerase ribozyme fitness (log ratio)” value is no more than -4.2.

For the variant A24U U55A A91U C105U, the “polymerase ribozyme fitness (log ratio)” value was no more than -4.2.

A24U C51U C79A G94A G141U: the “polymerase ribozyme fitness (log ratio)” value is no more than -4.2.

As to A24C G34A A60G C85G C103A A120U, the “polymerase ribozyme fitness (log ratio)” value is no more than -4.2.

Take A24C G62C G86U U102C: the “polymerase ribozyme fitness (log ratio)” value is no more than -4.2.

With A24U C72A C85G C87U A137G, the “polymerase ribozyme fitness (log ratio)” value was no more than -4.2.

A24G C105A U144G: the “polymerase ribozyme fitness (log ratio)” value was no more than -4.2.

Consider A24C C38U G92A G126U C131A, for which the “polymerase ribozyme fitness (log ratio)” value was no more than -4.2.

In the case of A24G C108U U148G, the “polymerase ribozyme fitness (log ratio)” value is no more than -4.2.

As to A24U G58C G62C A115C G140U, the “polymerase ribozyme fitness (log ratio)” value is no more than -4.2.

Regarding A24G U55A A122C U134A, the “polymerase ribozyme fitness (log ratio)” value was no more than -4.2.

With A24C U31G A37G C51U A52U U56G C76U C93A G141A, the “polymerase ribozyme fitness (log ratio)” value is no more than -4.2.

As to A24U G48A U53A A106C, the “polymerase ribozyme fitness (log ratio)” value was no more than -4.2.

Regarding A24U C93A C132A, the “polymerase ribozyme fitness (log ratio)” value is no more than -4.2.

In the case of A24C C35U C95A, the “polymerase ribozyme fitness (log ratio)” value is no more than -4.2.

A24U A28U U33A A41C U55G C96U: the “polymerase ribozyme fitness (log ratio)” value is no more than -4.2.

For A24U G80U A138G, the “polymerase ribozyme fitness (log ratio)” value is no more than -4.2.

Take G25A C51A C93G U111A G117U: the “polymerase ribozyme fitness (log ratio)” value was no more than -4.2.

A24G G124U: the “polymerase ribozyme fitness (log ratio)” value was -4.06.

On to A24U G68U G81A U102A C118G A120C A137G G143A, for which the “polymerase ribozyme fitness (log ratio)” value is no more than -4.2.

As for A24U A47U C51A G80A C118U C149U, the “polymerase ribozyme fitness (log ratio)” value was no more than -4.2.

As to A24G A97G, the “polymerase ribozyme fitness (log ratio)” value is no more than -4.2.

Consider A24U C79U U102G C118U A119G G140A, for which the “polymerase ribozyme fitness (log ratio)” value is no more than -4.2.

As to A24G A39U U55A A66G, the “polymerase ribozyme fitness (log ratio)” value is no more than -4.2.

For A24U U53A G58C U61A A91G C149U, the “polymerase ribozyme fitness (log ratio)” value is no more than -4.2.

For the variant A24U G136U, the “polymerase ribozyme fitness (log ratio)” value was -2.44.

As for A24C G34A G42U U61A A91G U151A, the “polymerase ribozyme fitness (log ratio)” value was no more than -4.2.

Turning to A24U C35A U55G G65A G70A G84A G136A, the “polymerase ribozyme fitness (log ratio)” value is no more than -4.2.

A24C C43G C54U A73G: the “polymerase ribozyme fitness (log ratio)” value is no more than -4.2.

Regarding A24G A47G G48A C75U G86A, the “polymerase ribozyme fitness (log ratio)” value is no more than -4.2.

As to A24G U145A, the “polymerase ribozyme fitness (log ratio)” value is -3.78.

As to A24G U82C G88U C125G, the “polymerase ribozyme fitness (log ratio)” value was no more than -4.2.

A24U U56A G62C: the “polymerase ribozyme fitness (log ratio)” value is -1.06.

For A24U C43U C51U C57A C85U C129G, the “polymerase ribozyme fitness (log ratio)” value was no more than -4.2.

Consider A24U G80U, for which the “polymerase ribozyme fitness (log ratio)” value was -0.195.

Turning to A24G A91U, the “polymerase ribozyme fitness (log ratio)” value is no more than -4.2.

With G25A G59A G80A A97G C105G A106G U127G A150C, the “polymerase ribozyme fitness (log ratio)” value is no more than -4.2.

In the case of G25A A29C C36G A97C A106U A147G, the “polymerase ribozyme fitness (log ratio)” value was no more than -4.2.

Consider A24G A28U A52C C79G G83A C114A, for which the “polymerase ribozyme fitness (log ratio)” value was no more than -4.2.

Regarding G25A A28U G94A U102A A137C, the “polymerase ribozyme fitness (log ratio)” value was no more than -4.2.

Take A24G A97U G140U: the “polymerase ribozyme fitness (log ratio)” value was no more than -4.2.

Take A24C C54U G74A G88U U109G: the “polymerase ribozyme fitness (log ratio)” value was no more than -4.2.

On to A24G A28U U78G G92U G152U, for which the “polymerase ribozyme fitness (log ratio)” value is no more than -4.2.

Turning to A24U C93A G112A C114U C116G A119G, the “polymerase ribozyme fitness (log ratio)” value was no more than -4.2.

As to A24C G48A G67A G70A G88C C103G G133U, the “polymerase ribozyme fitness (log ratio)” value is no more than -4.2.

Turning to A24C G50C C93U, the “polymerase ribozyme fitness (log ratio)” value was no more than -4.2.

Regarding A24C A30G G71A C85U C123U U135G, the “polymerase ribozyme fitness (log ratio)” value is no more than -4.2.

In the case of A24G A41C C75A C116A, the “polymerase ribozyme fitness (log ratio)” value is no more than -4.2.

As for A24G C43G G59C G86A C87A A106G G136U, the “polymerase ribozyme fitness (log ratio)” value is no more than -4.2.

On to A24U A29U C38U C105U G117U, for which the “polymerase ribozyme fitness (log ratio)” value was no more than -4.2.

A24C G83U C105A: the “polymerase ribozyme fitness (log ratio)” value was no more than -4.2.

Take G25A C32U C75A C87U C105G A107U A119U U130A A137G: the “polymerase ribozyme fitness (log ratio)” value is no more than -4.2.

Take A24U G25U A28U G34U: the “polymerase ribozyme fitness (log ratio)” value was no more than -4.2.

Turning to A24U C93U C118U A121G, the “polymerase ribozyme fitness (log ratio)” value is -1.37.

Consider A24U U31G A41C G140U U151G, for which the “polymerase ribozyme fitness (log ratio)” value was no more than -4.2.

Consider A24C C27A U56A G58A C72U A73U C87U, for which the “polymerase ribozyme fitness (log ratio)” value is no more than -4.2.

A24G A29U C76G C93G C96G G126A G143U: the “polymerase ribozyme fitness (log ratio)” value is no more than -4.2.

The values above are taken from the RNAGym collection of RNA variant scans (doi:10.1073/pnas.2313332121).
